# Experimental data published in the supplement of paper PMC8728848.
# The other results are listed elsewhere or left out.
# B1: Gal 7 (Homo sapiens) (protein)
# chain: MSNVPHKSSLPEGIRPGTVLRIRGLVPPNASRFHVNLLCGEEGGSDAALHFNPRLDTSEVVFNSKEGGSWGREERGPGVPFGRGQPFEVLIIASDDGFKAVVGDAQYHHFRHRLPLARVRLVEVGGDVQLDSVRIF
# Tests used:
# Experiment in all cases: glycan array binding signal (z-score within array); higher = stronger binding
# Details in all cases: glycan notation: IUPAC condensed, linker removed
# [1] = molecular target: Neu5Ac(a2-6)Gal(b1-3)GlcNAc(b1-3)[Gal(b1-4)GlcNAc(b1-6)]Gal(b1-4)Glc
# How it was run: (§1)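 Glycan array data came from 3228 arrays in the Consortium for Functional Glycomics database, and only arrays with an available protein sequence were kept. Glycan names were put into IUPAC-condensed notation, and columns mapping to the same glycan were averaged. The binding signal is a within-array Z-score, averaged across arrays of one protein sequence run at different concentrations or buffers and across linkers. A negative Z-score can be read as non-binding.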
# Neu5Ac(a2-6)Gal(b1-4)Glc = molecular target: Neu5Ac(a2-6)Gal(b1-4)Glc
# How it was run: as §1
# [2] = molecular target: Neu5Ac(a2-6)Gal(b1-4)GlcNAc
# How it was run: as §1
# [3] = molecular target: Neu5Ac(a2-6)Gal(b1-4)GlcNAc(b1-2)Man
# How it was run: as §1
# [4] = molecular target: Neu5Ac(a2-6)Gal(b1-4)GlcNAc(b1-2)Man(a1-3)Man(b1-4)GlcNAc(b1-4)GlcNAc
# How it was run: as §1
# [5] = molecular target: Neu5Ac(a2-6)Gal(b1-4)GlcNAc(b1-2)Man(a1-3)[Gal(b1-4)GlcNAc(b1-2)Man(a1-6)]Man(b1-4)GlcNAc(b1-4)GlcNAc
# How it was run: as §1
# [6] = molecular target: Neu5Ac(a2-6)Gal(b1-4)GlcNAc(b1-2)Man(a1-3)[GlcNAc(b1-2)Man(a1-6)]Man(b1-4)GlcNAc(b1-4)GlcNAc
# How it was run: as §1
# [7] = molecular target: Neu5Ac(a2-6)Gal(b1-4)GlcNAc(b1-2)Man(a1-3)[GlcNAc(b1-2)Man(b1-4)GlcNAc(b1-2)Man(a1-6)]Man(b1-4)GlcNAc(b1-4)GlcNAc
# How it was run: as §1
# [8] = molecular target: Neu5Ac(a2-6)Gal(b1-4)GlcNAc(b1-2)Man(a1-3)[GlcNAc(b1-4)][Neu5Ac(a2-6)Gal(b1-4)GlcNAc(b1-2)Man(a1-6)]Man(b1-4)GlcNAc(b1-4)GlcNAc
# How it was run: as §1
# [9] = molecular target: Neu5Ac(a2-6)Gal(b1-4)GlcNAc(b1-2)Man(a1-3)[Man(a1-6)]Man(b1-4)GlcNAc(b1-4)GlcNAc
# How it was run: as §1
# [10] = molecular target: Neu5Ac(a2-6)Gal(b1-4)GlcNAc(b1-2)Man(a1-3)[Neu5Ac(a2-3)Gal(b1-4)GlcNAc(b1-2)Man(a1-6)]Man(b1-4)GlcNAc(b1-4)GlcNAc
# How it was run: as §1
# [11] = molecular target: Neu5Ac(a2-6)Gal(b1-4)GlcNAc(b1-2)Man(a1-3)[Neu5Ac(a2-6)Gal(b1-4)GlcNAc(b1-2)Man(a1-6)]Man(b1-4)GlcNAc(b1-4)GlcNAc
# How it was run: as §1
# [12] = molecular target: Neu5Ac(a2-6)Gal(b1-4)GlcNAc(b1-2)Man(a1-3)[Neu5Ac(a2-6)Gal(b1-4)GlcNAc(b1-2)Man(a1-6)]Man(b1-4)GlcNAc(b1-4)[Fuc(a1-6)]GlcNAc
# How it was run: as §1
# [13] = molecular target: Neu5Ac(a2-6)Gal(b1-4)GlcNAc(b1-2)Man(a1-6)Man(b1-4)GlcNAc(b1-4)GlcNAc
# How it was run: as §1
# [14] = molecular target: Neu5Ac(a2-6)Gal(b1-4)GlcNAc(b1-2)Man(a1-6)[Gal(b1-4)GlcNAc(b1-2)Man(a1-3)]Man(b1-4)GlcNAc(b1-4)GlcNAc
# How it was run: as §1
# [15] = molecular target: Neu5Ac(a2-6)Gal(b1-4)GlcNAc(b1-2)Man(a1-6)[GlcNAc(b1-2)Man(a1-3)]Man(b1-4)GlcNAc(b1-4)GlcNAc
# How it was run: as §1
# [16] = molecular target: Neu5Ac(a2-6)Gal(b1-4)GlcNAc(b1-2)Man(a1-6)[Man(a1-3)]Man(b1-4)GlcNAc(b1-4)GlcNAc
# How it was run: as §1
# [17] = molecular target: Neu5Ac(a2-6)Gal(b1-4)GlcNAc(b1-2)[Neu5Ac(a2-6)Gal(b1-4)GlcNAc(b1-4)]Man(a1-3)[GlcNAc(b1-4)][Neu5Ac(a2-6)Gal(b1-4)GlcNAc(b1-2)[Neu5Ac(a2-6)Gal(b1-4)GlcNAc(b1-6)]Man(a1-6)]Man(b1-4)GlcNAc(b1-4)GlcNAc
# How it was run: as §1
# [18] = molecular target: Neu5Ac(a2-6)Gal(b1-4)GlcNAc(b1-2)[Neu5Ac(a2-6)Gal(b1-4)GlcNAc(b1-4)]Man(a1-3)[GlcNAc(b1-4)][Neu5Ac(a2-6)Gal(b1-4)GlcNAc(b1-4)Man(a1-6)]Man(b1-4)GlcNAc(b1-4)GlcNAc
# How it was run: as §1
# [19] = molecular target: Neu5Ac(a2-6)Gal(b1-4)GlcNAc(b1-2)[Neu5Ac(a2-6)Gal(b1-4)GlcNAc(b1-6)]Man(a1-6)[Neu5Ac(a2-6)Gal(b1-4)GlcNAc(b1-2)Man(a1-3)][GlcNAc(b1-4)]Man(b1-4)GlcNAc(b1-4)GlcNAc
# How it was run: as §1
# [20] = molecular target: Neu5Ac(a2-6)Gal(b1-4)GlcNAc(b1-3)Gal(b1-3)GlcNAc
# How it was run: as §1
# [21] = molecular target: Neu5Ac(a2-6)Gal(b1-4)GlcNAc(b1-3)Gal(b1-4)GlcNAc
# How it was run: as §1
# [22] = molecular target: Neu5Ac(a2-6)Gal(b1-4)GlcNAc(b1-3)Gal(b1-4)GlcNAc(b1-2)Man(a1-3)[Neu5Ac(a2-6)Gal(b1-4)GlcNAc(b1-3)Gal(b1-4)GlcNAc(b1-2)Man(a1-6)]GalNAc
# How it was run: as §1
# [23] = molecular target: Neu5Ac(a2-6)Gal(b1-4)GlcNAc(b1-3)Gal(b1-4)GlcNAc(b1-3)Gal(b1-4)GlcNAc
# How it was run: as §1
# [24] = molecular target: Neu5Ac(a2-6)Gal(b1-4)GlcNAc(b1-3)Gal(b1-4)GlcNAc(b1-3)Gal(b1-4)GlcNAc(b1-2)Man(a1-3)[Neu5Ac(a2-6)Gal(b1-4)GlcNAc(b1-3)Gal(b1-4)GlcNAc(b1-3)Gal(b1-4)GlcNAc(b1-2)Man(a1-6)]GalNAc
# How it was run: as §1
# [25] = molecular target: Neu5Ac(a2-6)Gal(b1-4)GlcNAc(b1-3)Gal(b1-4)GlcNAc(b1-3)GalNAc
# How it was run: as §1
# [26] = molecular target: Neu5Ac(a2-6)Gal(b1-4)GlcNAc(b1-3)Gal(b1-4)GlcNAc(b1-3)[Neu5Ac(a2-6)Gal(b1-4)GlcNAc(b1-3)Gal(b1-4)GlcNAc(b1-6)]GalNAc
# How it was run: as §1
# [27] = molecular target: Neu5Ac(a2-6)Gal(b1-4)GlcNAc(b1-3)Gal(b1-4)GlcNAc(b1-6)[Gal(b1-3)]GalNAc
# How it was run: as §1
# [28] = molecular target: Neu5Ac(a2-6)Gal(b1-4)GlcNAc(b1-3)Gal(b1-4)[Fuc(a1-3)]GlcNAc(b1-3)Gal(b1-4)[Fuc(a1-3)]GlcNAc
# How it was run: as §1
# [29] = molecular target: Neu5Ac(a2-6)Gal(b1-4)GlcNAc(b1-3)GalNAc
# How it was run: as §1
# [30] = molecular target: Neu5Ac(a2-6)Gal(b1-4)GlcNAc(b1-3)[Neu5Ac(a2-6)Gal(b1-4)GlcNAc(b1-6)]GalNAc
# How it was run: as §1
# [31] = molecular target: Neu5Ac(a2-6)Gal(b1-4)GlcNAc(b1-6)GalNAc
# How it was run: as §1
# [32] = molecular target: Neu5Ac(a2-6)Gal(b1-4)GlcNAc(b1-6)[Gal(b1-3)GlcNAc(b1-3)]Gal(b1-4)Glc
# How it was run: as §1
# [33] = molecular target: Neu5Ac(a2-6)Gal(b1-4)GlcNAc(b1-6)[Gal(b1-3)]GalNAc
# How it was run: as §1
# [34] = molecular target: Neu5Ac(a2-6)Gal(b1-4)GlcNAc6S
# How it was run: as §1
# Neu5Ac(a2-6)GalNAc = molecular target: Neu5Ac(a2-6)GalNAc
# How it was run: as §1
binder,measurement,setting,value
B1,glycan array binding signal (z-score),[1],-0.142
same,glycan array binding signal (z-score),Neu5Ac(a2-6)Gal(b1-4)Glc,-0.192
same,glycan array binding signal (z-score),[2],-0.336
same,glycan array binding signal (z-score),[3],-0.26
same,glycan array binding signal (z-score),[4],-0.289
same,glycan array binding signal (z-score),[5],-0.241
same,glycan array binding signal (z-score),[6],-0.371
same,glycan array binding signal (z-score),[7],-0.297
same,glycan array binding signal (z-score),[8],-0.272
same,glycan array binding signal (z-score),[9],-0.277
same,glycan array binding signal (z-score),[10],-0.273
same,glycan array binding signal (z-score),[11],-0.126
same,glycan array binding signal (z-score),[12],0.329
same,glycan array binding signal (z-score),[13],-0.279
same,glycan array binding signal (z-score),[14],-0.301
same,glycan array binding signal (z-score),[15],-0.26
same,glycan array binding signal (z-score),[16],-0.288
same,glycan array binding signal (z-score),[17],-0.233
same,glycan array binding signal (z-score),[18],-0.266
same,glycan array binding signal (z-score),[19],-0.274
same,glycan array binding signal (z-score),[20],-0.066
same,glycan array binding signal (z-score),[21],0.174
same,glycan array binding signal (z-score),[22],0.926
same,glycan array binding signal (z-score),[23],0
same,glycan array binding signal (z-score),[24],1.25
same,glycan array binding signal (z-score),[25],-0.258
same,glycan array binding signal (z-score),[26],-0.2
same,glycan array binding signal (z-score),[27],-0.301
same,glycan array binding signal (z-score),[28],-0.274
same,glycan array binding signal (z-score),[29],0.203
same,glycan array binding signal (z-score),[30],0.001
same,glycan array binding signal (z-score),[31],0.369
same,glycan array binding signal (z-score),[32],-0.094
same,glycan array binding signal (z-score),[33],-0.265
same,glycan array binding signal (z-score),[34],-0.284
same,glycan array binding signal (z-score),Neu5Ac(a2-6)GalNAc,-0.315
